Source: the supplement of paper PMC8728848
This is one part of the list.

Key:
Assay in all cases: glycan array binding signal (z-score within array); higher = stronger binding
Conditions in all cases: glycan notation: IUPAC condensed, linker removed
[1] = molecular target: Neu5Ac(a2-3)Gal(b1-3)GlcNAc(b1-3)Gal(b1-3)GlcNAc
Outline: (§1)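 The Consortium for Functional Glycomics database supplied 3228 glycan arrays, of which those lacking an available protein sequence were dropped. The binding signal, a within-array Z-score, was averaged across arrays of the same protein sequence and across linkers. Negative scores can be read as non-binding.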

[2] = molecular target: Neu5Ac(a2-3)Gal(b1-3)GlcNAc6S
Outline: as §1

[3] = molecular target: Neu5Ac(a2-3)Gal(b1-3)[Fuc(a1-4)]GlcNAc
Outline: as §1

[4] = molecular target: Neu5Ac(a2-3)Gal(b1-3)[Fuc(a1-4)]GlcNAc(b1-3)Gal(b1-4)[Fuc(a1-3)]GlcNAc
Outline: as §1

[5] = molecular target: Neu5Ac(a2-3)Gal(b1-3)[Neu5Ac(a2-3)Gal(b1-4)]GlcNAc
Outline: as §1

[6] = molecular target: Neu5Ac(a2-3)Gal(b1-3)[Neu5Ac(a2-6)]GalNAc
Outline: as §1

Neu5Ac(a2-3)Gal(b1-4)Glc = molecular target: Neu5Ac(a2-3)Gal(b1-4)Glc
Outline: as §1

[7] = molecular target: Neu5Ac(a2-3)Gal(b1-4)GlcNAc
Outline: as §1

[8] = molecular target: Neu5Ac(a2-3)Gal(b1-4)GlcNAc(b1-2)Man(a1-3)[GlcNAc(b1-2)Man(b1-4)GlcNAc(b1-2)Man(a1-6)]Man(b1-4)GlcNAc(b1-4)GlcNAc
Outline: as §1

[9] = molecular target: Neu5Ac(a2-3)Gal(b1-4)GlcNAc(b1-2)Man(a1-3)[Neu5Ac(a2-3)Gal(b1-4)GlcNAc(b1-2)Man(a1-6)]Man(b1-4)GlcNAc(b1-4)GlcNAc
Outline: as §1

[10] = molecular target: Neu5Ac(a2-3)Gal(b1-4)GlcNAc(b1-2)Man(a1-3)[Neu5Ac(a2-6)Gal(b1-4)GlcNAc(b1-2)Man(a1-6)]Man(b1-4)GlcNAc(b1-4)GlcNAc
Outline: as §1

[11] = molecular target: Neu5Ac(a2-3)Gal(b1-4)GlcNAc(b1-3)Gal(b1-3)GlcNAc
Outline: as §1

[12] = molecular target: Neu5Ac(a2-3)Gal(b1-4)GlcNAc(b1-3)Gal(b1-4)GlcNAc
Outline: as §1

[13] = molecular target: Neu5Ac(a2-3)Gal(b1-4)GlcNAc(b1-3)Gal(b1-4)GlcNAc(b1-3)Gal(b1-4)GlcNAc
Outline: as §1

[14] = molecular target: Neu5Ac(a2-3)Gal(b1-4)GlcNAc(b1-3)Gal(b1-4)[Fuc(a1-3)]GlcNAc
Outline: as §1

[15] = molecular target: Neu5Ac(a2-3)Gal(b1-4)GlcNAc(b1-6)[Gal(b1-3)]GalNAc
Outline: as §1

[16] = molecular target: Neu5Ac(a2-3)Gal(b1-4)GlcNAc(b1-6)[Neu5Ac(a2-3)Gal(b1-3)]GalNAc
Outline: as §1

[17] = molecular target: Neu5Ac(a2-3)Gal(b1-4)GlcNAc6S
Outline: as §1

[18] = molecular target: Neu5Ac(a2-3)Gal(b1-4)[Fuc(a1-3)]GlcNAc
Outline: as §1

[19] = molecular target: Neu5Ac(a2-3)Gal(b1-4)[Fuc(a1-3)]GlcNAc(b1-3)Gal
Outline: as §1

[20] = molecular target: Neu5Ac(a2-3)Gal(b1-4)[Fuc(a1-3)]GlcNAc(b1-3)Gal(b1-4)GlcNAc
Outline: as §1

[21] = molecular target: Neu5Ac(a2-3)Gal(b1-4)[Fuc(a1-3)]GlcNAc(b1-3)Gal(b1-4)[Fuc(a1-3)]GlcNAc(b1-3)Gal(b1-4)[Fuc(a1-3)]GlcNAc
Outline: as §1

[22] = molecular target: Neu5Ac(a2-3)Gal(b1-4)[Fuc(a1-3)]GlcNAc(b1-6)[Gal(b1-3)]GalNAc
Outline: as §1

[23] = molecular target: Neu5Ac(a2-3)Gal(b1-4)[Fuc(a1-3)]GlcNAc6S
Outline: as §1

[24] = molecular target: Neu5Ac(a2-3)Gal6S(b1-4)GlcNAc
Outline: as §1

[25] = molecular target: Neu5Ac(a2-3)Gal6S(b1-4)[Fuc(a1-3)]GlcNAc
Outline: as §1

Neu5Ac(a2-3)GalNAc = molecular target: Neu5Ac(a2-3)GalNAc
Outline: as §1

[26] = molecular target: Neu5Ac(a2-3)GalNAc(b1-4)GlcNAc
Outline: as §1

[27] = molecular target: Neu5Ac(a2-3)[GalNAc(b1-4)]Gal(b1-4)Glc
Outline: as §1

[28] = molecular target: Neu5Ac(a2-3)[GalNAc(b1-4)]Gal(b1-4)GlcNAc
Outline: as §1

B1: E-Selectin (Homo sapiens), P16581 (protein)
chain: MIASQFLSALTLVLLIKESGAWSYNTSTEAMTYDEASAYCQQRYTHLVAIQNKEEIEYLNSILSYSPSYYWIGIRKVNNVWVWVGTQKPLTEEAKNWAPGEPNNRQKDEDCVEIYIKREKDVGMWNDERCSKKKLALCYTAACTNTSCSGHGECVETINNYTCKCDPGFSGLKCEQIVNCTALESPEHGSLVCSHPLGNFSYNSSCSISCDRGYLPSSMETMQCMSSGEWSAPIPACNVVECDAVTNPANGFVECFQNPGSFPWNTTCTFDCEEGFELMGAQSLQCTSSGNWDNEKPTCKAVTCRAVRQPQNGSVRCSHSPAGEFTFKSSCNFTCEEGFMLQGPAQVECTTQGQWTQQIPVCEAFQCTALSNPERGYMNCLPSASGSFRYGSSCEFSCEQGFVLKGSKRLQCGPTGEWDNEKPTCEAVRCDAVHQPPKGLVRCAHSPIGEFTYKSSCAFSCEEGFELHGSTQLECTSQGQWTEEVPSCQVVKCSSLAVPGKINMSCSGEPVFGTVCKFACPEGWTLNGSAARTCGATGHWSGLLPTCEAPTESNIPLVAGLSAAGLSLLTLAPFLLWLRKCLRKAKKFVPASSCQSLESDGSYQKPSYIL
[1]
  glycan array binding signal (z-score): -0.157
[2]
  glycan array binding signal (z-score): 0.08
[3]
  glycan array binding signal (z-score): 9.04
[4]
  glycan array binding signal (z-score): 3.76
[5]
  glycan array binding signal (z-score): -0.137
[6]
  glycan array binding signal (z-score): -0.087
Neu5Ac(a2-3)Gal(b1-4)Glc
  glycan array binding signal (z-score): -0.029
[7]
  glycan array binding signal (z-score): -0.045
[8]
  glycan array binding signal (z-score): 0.027
[9]
  glycan array binding signal (z-score): -0.122
[10]
  glycan array binding signal (z-score): -0.202
[11]
  glycan array binding signal (z-score): 0.103
[12]
  glycan array binding signal (z-score): -0.054
[13]
  glycan array binding signal (z-score): 0.038
[14]
  glycan array binding signal (z-score): -0.089
[15]
  glycan array binding signal (z-score): -0.157
[16]
  glycan array binding signal (z-score): -0.234
[17]
  glycan array binding signal (z-score): 0.37
[18]
  glycan array binding signal (z-score): 0.286
[19]
  glycan array binding signal (z-score): 3.07
[20]
  glycan array binding signal (z-score): 0.243
[21]
  glycan array binding signal (z-score): 0.081
[22]
  glycan array binding signal (z-score): -0.024
[23]
  glycan array binding signal (z-score): 0.171
[24]
  glycan array binding signal (z-score): 0.072
[25]
  glycan array binding signal (z-score): 0.067
Neu5Ac(a2-3)GalNAc
  glycan array binding signal (z-score): 0.035
[26]
  glycan array binding signal (z-score): -0.106
[27]
  glycan array binding signal (z-score): -0.136
[28]
  glycan array binding signal (z-score): -0.079
